# Data as given in the supplement of paper PMC3334620.
# The full ranking holds about 33,000 sequences; the median of “E-score (-0.5 to 0.5)” is about -0.012, and the highest 2% start at about 0.29. The list shows a part of the results.
# Biological target: T1, Ybr033w (UniProt P38073)
# T1 sequence: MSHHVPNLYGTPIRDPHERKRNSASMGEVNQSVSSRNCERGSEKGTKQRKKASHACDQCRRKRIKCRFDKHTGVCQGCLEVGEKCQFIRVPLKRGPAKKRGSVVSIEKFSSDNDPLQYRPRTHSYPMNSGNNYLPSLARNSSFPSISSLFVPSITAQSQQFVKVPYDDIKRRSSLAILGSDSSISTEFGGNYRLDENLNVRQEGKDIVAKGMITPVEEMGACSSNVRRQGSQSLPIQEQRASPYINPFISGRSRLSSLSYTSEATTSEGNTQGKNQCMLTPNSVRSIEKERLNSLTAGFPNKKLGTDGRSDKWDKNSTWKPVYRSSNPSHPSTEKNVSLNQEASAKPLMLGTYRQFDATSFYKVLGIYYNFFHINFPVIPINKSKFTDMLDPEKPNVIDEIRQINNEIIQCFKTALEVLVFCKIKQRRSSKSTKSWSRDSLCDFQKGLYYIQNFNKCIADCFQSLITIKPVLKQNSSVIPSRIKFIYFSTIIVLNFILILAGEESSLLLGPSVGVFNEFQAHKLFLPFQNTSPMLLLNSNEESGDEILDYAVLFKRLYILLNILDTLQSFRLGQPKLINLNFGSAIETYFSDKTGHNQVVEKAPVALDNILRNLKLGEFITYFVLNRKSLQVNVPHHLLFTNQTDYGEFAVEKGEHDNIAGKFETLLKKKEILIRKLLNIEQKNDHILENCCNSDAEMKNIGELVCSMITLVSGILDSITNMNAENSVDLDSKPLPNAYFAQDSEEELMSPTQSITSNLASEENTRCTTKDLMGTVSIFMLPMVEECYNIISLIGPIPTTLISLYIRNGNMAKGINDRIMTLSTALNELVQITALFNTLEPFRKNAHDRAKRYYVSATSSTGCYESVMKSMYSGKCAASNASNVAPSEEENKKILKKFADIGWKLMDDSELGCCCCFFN
# Assay: PBM E-score (8-mer binding enrichment) (E-score (-0.5 to 0.5)); higher = stronger / more preferred TF binding; most listed sequences are background and not binding sites
# Conditions: protein concentration: 200 nM; construct: GST-full length
# Experimental: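 Universal 'all 10-mer' protein binding microarrays (Agilent AMADID 015681) probed with GST-tagged S. cerevisiae TFs (full-length or DBD) made by in vitro transcription/translation (PURExpress), about 100-200 nM. Bound TF was detected with fluorescent anti-GST. Each ungapped 8-mer (which stands for itself and its reverse complement) is scored by the PBM enrichment score (E-score), a modified Wilcoxon-Mann-Whitney statistic from -0.5 to +0.5, computed with the Universal PBM Analysis Suite. Scale: above 0.35 generally sequence-specific binding.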
row,Sequence,PBM E-score
1,GAGTTTGA,0.122
2,ACCGTTAA,0.0767
3,CATATACG,0.137
4,ACCTGGCC,-0.103
5,ACGGAAAC,-0.12
6,CCTGGGCG,-0.319
7,GGAGCTCC,-0.201
8,AACAAGGA,0.12
9,CGAGTGCC,-0.198
10,ATTTATCG,0.0834
11,ACATCTTC,0.0736
12,AAGAGGCT,-0.184
13,GGTCGGCA,-0.192
14,TCCCTAGA,0.117
15,GATCGCGC,-0.118
16,CGTTCATA,-0.0368
17,CAACCTGA,0.0396
18,CATGCCGC,-0.0518
19,CACGATAA,0.187
20,ATAGAACG,0.202
21,TACGCAAA,0.0661
22,ATCATCGA,0.135
23,AGTCGAGA,0.076
24,TAGTGGCA,0.0891
25,AAAGGCAG,0.0198

row,Sequence,PBM E-score
1,TCAACGGA,-0.00829
2,CAACGATC,0.0482
3,AGGGACCG,-0.266
4,AGATATCG,0.0533
5,AGTAGTAA,0.178
6,CGACGGGA,-0.0153
7,CTCTTGAA,0.101
8,CACTGTGA,0.143
9,AATTAGAC,0.173
10,ATCCGGCA,-0.129
11,ATTGGTCA,-0.00586
12,AGGAGCGA,-0.166
13,ATGACTAG,0.106
14,GCCCTCTA,-0.176
15,AGCATAAT,0.178
16,ACGCTCAG,-0.016
17,GCAGGGCA,-0.163
18,CAGTTACA,0.0732
19,AAAACATG,0.238
20,AGCTGATC,0.0685
21,GCGATTCA,-0.142
22,CTCTCGAC,-0.0923
23,CGGTACAG,-0.13
24,CCGATCTC,-0.0712
25,AGTGAATC,0.0239

row,Sequence,PBM E-score
1,CGGTTAAG,0.0198
2,AAGGACCT,0.0112
3,GAATCCCC,-0.237
4,CACATCCG,-0.00535
5,GCAAGAGC,-0.0553
6,CGATGACG,-0.11
7,ACTCAGTC,-0.0567
8,GCCAGTCA,-0.0701
9,ACATAACC,0.0469
10,ATTTGGTC,-0.0569
11,ACGCATCC,-0.228
12,CAGCGTGG,-0.155
13,CCTTTTGA,0.241
14,GCTGTTAC,-0.0989
15,CACTACCA,-0.00448
16,AAGTGTGC,0.0437
17,AACCAACT,0.212
18,GTAGAGAC,-0.105
19,CATGGAGG,-0.234
20,GCCTGGTA,-0.0806
21,ACCACACG,-0.0206
22,CTAGCGCC,-0.281
23,GGTCTAAC,-0.126
24,AGTTTCTA,0.0314
25,GCCGAGAA,-0.00791

row,Sequence,PBM E-score
1,CTTTCAGC,-0.0731
2,AACCCCTT,-0.158
3,CGGCTATA,-0.0713
4,AGTGCGCC,-0.066
5,TCGATTAA,0.288
6,CTTACCTA,0.143
7,GACTCGAC,-0.223
8,CAAGCACC,-0.205
9,CTCCAAAA,0.0828
10,CAACTAGA,-0.0185
11,AAGATATC,0.117
12,GAGTAGGA,-0.0596
13,CTATTTGC,-0.00375
14,CCTCGTTA,-0.00406
15,CGCACTTC,-0.128
16,AAATTACA,0.198
17,CTTATATA,0.334
18,GTCAAATA,0.188
19,GCGGCTTA,0.0298
20,AACTGCGC,-0.116
21,AGGGGAAA,0.0237
22,AATTGGCG,0.0731
23,CCGTGACG,-0.101
24,CAACGTCC,-0.157
25,AAGATTTG,0.054

row,Sequence,PBM E-score
1,GATGATGA,-0.00448
2,GTAGCCAC,-0.247
3,ATTACTCC,0.23
4,AAGATTGT,0.143
5,GATTAGAA,0.0985
6,CTATGTTA,0.24
7,CTTCAGAC,-0.0755
8,CATGTACA,-0.0456
9,CCGTTTAC,-0.026
10,GCGTACAA,-0.00822
11,CACGGCTC,0.00122
12,ACTATGCG,0.0912
13,ATGACCTC,-0.0966
14,AATGGTCT,0.0675
15,AGCATGAA,0.0623
16,CTCGCATC,-0.0163
17,GGGCAAGA,0.013
18,ACTCAGCG,-0.0413
19,CAGGTACC,-0.211
20,CCTCCTCG,-0.252
21,GAACGGGC,-0.282
22,GAAGCGTC,-0.208
23,AGTCTGCG,-0.321
24,GTTGGGGA,-0.17
25,AGTGGGTA,0.0537

row,Sequence,PBM E-score
1,AGACCGAT,-0.0377
2,AGCATCCC,-0.261
3,CACATGGG,-0.192
4,ACTACAAC,0.206
5,TATGGGAA,-0.0118
6,AAAAACGA,0.275
7,CACGCAGA,0.0953
8,TCTCCGCA,-0.0407
9,CCTCCCGC,-0.175
10,ACAGGACC,-0.0354
11,AGCACGAG,0.0967
12,GGTATCAA,0.0433
13,ATGTCGCG,-0.111
14,AGGGATCC,-0.215
15,CGAGAACG,-0.101
16,GCTGACCA,0.0331
17,ACTTGTTC,0.25
18,GCGAGACC,-0.0977
19,AATGAATT,0.272
20,GAAGAACC,0.248
21,ATTTTTGC,0.308
22,GCGTGAGA,0.00863
23,ATTGTCGG,-0.141
24,AACCTTTC,-0.0863
25,CGGAAAAG,0.107

row,Sequence,PBM E-score
1,AAGAGAGT,-0.00066
2,CCACAACC,0.11
3,CTAGAGCC,-0.0992
4,AACCAGCA,0.0219
5,CACTCTCC,0.00157
6,ACTGGTGA,-0.0598
7,CCCCCCCA,-0.408
8,GATGCATA,0.0744
9,CCTTAATA,0.129
10,GGTACAGA,0.132
11,CAAGATAG,0.00072
12,GCGATTAC,0.00833
13,CATCCTGC,-0.163
14,CCACTCAC,-0.157
15,GACCGCGA,-0.231
16,GCAAGCCC,-0.113
17,GTATGAGA,0.0734
18,ATAGCAAA,0.19
19,CATGCGGC,-0.2
20,ATGAGGAA,0.0885
21,AAGCGCGG,-0.121
22,CCAAGCGA,-0.0712
